{"source": "paper PMC4336329", "about": "(PLoS ONE, 2015)", "note": "Screen size: about 310,000 compounds; about 2,200 (0.71%) showed an effect of 50% or more. Effects have a minus sign here. The list shows a part of the results."}
{"biological_target": "human ether-à-go-go-related gene (hERG) potassium channel (human, UniProt Q12809)", "sequence (Q12809 whole entry, looked up)": "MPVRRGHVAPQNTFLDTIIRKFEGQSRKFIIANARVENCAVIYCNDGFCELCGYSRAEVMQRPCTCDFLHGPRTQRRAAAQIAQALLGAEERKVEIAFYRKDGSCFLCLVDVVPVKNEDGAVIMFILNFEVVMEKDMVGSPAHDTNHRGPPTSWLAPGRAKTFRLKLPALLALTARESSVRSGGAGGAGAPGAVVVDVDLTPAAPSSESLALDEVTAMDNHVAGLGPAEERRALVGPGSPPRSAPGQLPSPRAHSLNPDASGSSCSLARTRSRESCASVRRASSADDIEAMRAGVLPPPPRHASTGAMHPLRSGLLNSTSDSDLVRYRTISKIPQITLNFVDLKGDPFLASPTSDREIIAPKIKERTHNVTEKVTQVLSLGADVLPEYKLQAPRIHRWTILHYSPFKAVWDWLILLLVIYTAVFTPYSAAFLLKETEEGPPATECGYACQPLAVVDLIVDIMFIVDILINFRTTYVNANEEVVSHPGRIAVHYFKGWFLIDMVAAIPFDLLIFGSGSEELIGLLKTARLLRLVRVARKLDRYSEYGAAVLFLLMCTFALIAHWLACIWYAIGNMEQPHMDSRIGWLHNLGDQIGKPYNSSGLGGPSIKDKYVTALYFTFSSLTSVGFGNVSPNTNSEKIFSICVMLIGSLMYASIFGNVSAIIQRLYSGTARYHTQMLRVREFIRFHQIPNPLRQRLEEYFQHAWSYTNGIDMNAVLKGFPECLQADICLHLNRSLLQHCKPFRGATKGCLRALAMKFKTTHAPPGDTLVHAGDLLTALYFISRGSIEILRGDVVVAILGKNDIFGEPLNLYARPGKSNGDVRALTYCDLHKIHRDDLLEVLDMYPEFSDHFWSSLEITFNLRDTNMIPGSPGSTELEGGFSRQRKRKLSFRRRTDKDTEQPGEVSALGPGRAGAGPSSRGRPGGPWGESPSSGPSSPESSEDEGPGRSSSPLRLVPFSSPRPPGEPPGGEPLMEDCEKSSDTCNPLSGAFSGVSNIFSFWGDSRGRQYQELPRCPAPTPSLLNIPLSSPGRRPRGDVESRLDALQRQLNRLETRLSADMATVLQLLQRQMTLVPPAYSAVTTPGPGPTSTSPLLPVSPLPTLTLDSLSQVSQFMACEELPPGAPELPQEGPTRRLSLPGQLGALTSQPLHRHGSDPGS", "assay": "primary screen, population patch clamp on CHO cells stably expressing hERG", "units": {"hERG current change (%, negative = inhibition) at 1uM": "%"}}
{"smiles": "COc1ccc(-c2cc(C(=O)Nc3sc4c(c3C#N)CCCC4)c3ccccc3n2)cc1", "hERG current change (%, negative = inhibition) at 1uM": 2.84}
{"smiles": "CCOc1ccccc1NC(=O)CNC(=O)CNC(=O)Cc1ccccc1", "hERG current change (%, negative = inhibition) at 1uM": 13.2}
{"smiles": "COCCNC(=O)c1cc2nc3c(c(C(F)(F)F)n2n1)CCc1ccccc1-3", "hERG current change (%, negative = inhibition) at 1uM": 18.6}
{"smiles": "COc1ccc(-n2c(O)c(C(C)=NCCN3CCNCC3)c(=O)[nH]c2=O)cc1", "hERG current change (%, negative = inhibition) at 1uM": 7.61}
{"smiles": "Cc1ccc(Oc2ccccc2/C=C2\\SC(=O)N(C)C2=O)cc1", "hERG current change (%, negative = inhibition) at 1uM": 11.1}
{"smiles": "Cc1c(C(=O)N2CCOCC2)c(S(=O)(=O)Nc2ccccc2F)c(C)n1C", "hERG current change (%, negative = inhibition) at 1uM": 5.33}
{"smiles": "CN(CC(=O)Nc1ccc(Cl)c(S(=O)(=O)N(C)C)c1)Cc1ccccc1", "hERG current change (%, negative = inhibition) at 1uM": 7.43}
{"smiles": "COc1cc(C(C)=O)ccc1OCC(O)Cn1nc(C)c(Br)c1C", "note": "(stereo not shown)", "hERG current change (%, negative = inhibition) at 1uM": 9.12}
{"smiles": "O=C1Cc2cc(NS(=O)(=O)c3cc(F)ccc3F)cc3c2N1CCC3", "hERG current change (%, negative = inhibition) at 1uM": 9.19}
{"smiles": "CN1C(=S)SC(/[N+]([O-])=C/c2c(F)cccc2Cl)C1(C)C", "note": "(stereo not shown)", "hERG current change (%, negative = inhibition) at 1uM": 16.2}
{"smiles": "CC1(C)CC(=O)C2=C(C1)Nc1ccccc1NC2c1nc2ccccc2[nH]1", "note": "(stereo not shown)", "hERG current change (%, negative = inhibition) at 1uM": 10.2}
{"smiles": "CCC(NC(=O)Nc1ccc(O)cc1)(C(F)(F)F)C(F)(F)F", "hERG current change (%, negative = inhibition) at 1uM": 15.2}
{"smiles": "N#CCCN(Cc1cccs1)C(=O)Nc1ccc(F)cc1", "hERG current change (%, negative = inhibition) at 1uM": 5.92}
{"smiles": "Cc1ccc(C(=O)O/N=C2/CC3CCC2(C)[C@@]3(C)CBr)cc1", "note": "(stereo partly shown)", "hERG current change (%, negative = inhibition) at 1uM": 13.3}
{"smiles": "O=C1c2ccccc2C(=O)N1CCOCCN1C(=O)c2ccccc2C1=O", "hERG current change (%, negative = inhibition) at 1uM": 5.55}
{"smiles": "Cc1ccc(NC(=S)Nc2cc(C(=O)O)ccc2N2CC3CC(C2)c2cccc(=O)n2C3)cc1C", "note": "(stereo not shown)", "hERG current change (%, negative = inhibition) at 1uM": 4.92}
{"smiles": "COc1ccc(NC(=O)CNC(=O)Cn2cnc3sc4c(c3c2=O)CCCC4)cc1OC", "hERG current change (%, negative = inhibition) at 1uM": 18.9}
{"smiles": "CCC(=O)Nc1sc2c(c1C(=O)OC)CCN(Cc1ccccc1)C2.Cl", "hERG current change (%, negative = inhibition) at 1uM": -24.3}
{"smiles": "CC(c1ccco1)N(C(=O)c1cccc(S(=O)(=O)N(C)C)c1)c1ccccn1", "note": "(stereo not shown)", "hERG current change (%, negative = inhibition) at 1uM": 17.8}
{"smiles": "CN1CCN(S(=O)(=O)c2ccc(NC(=O)Cc3ccc([N+](=O)[O-])cc3)cc2)CC1", "hERG current change (%, negative = inhibition) at 1uM": 15.4}
{"smiles": "O=C(CN1c2ccccc2Sc2ccccc21)N/N=C/c1ccc([N+](=O)[O-])cc1", "hERG current change (%, negative = inhibition) at 1uM": 12.5}
{"smiles": "Cc1ccccc1NC(=S)N(CCCN1CCCCC1)Cc1ccco1", "hERG current change (%, negative = inhibition) at 1uM": -2.67}
{"smiles": "COc1ccc(CNS(=O)(=O)c2ccc3oc(C(=O)O)c(C)c3c2)cc1", "hERG current change (%, negative = inhibition) at 1uM": 5.85}
{"smiles": "CCCc1c(O)nc(SCc2ccccc2)[nH]c1=O", "hERG current change (%, negative = inhibition) at 1uM": 2.62}
{"smiles": "CCCCCn1c(SCC(=O)CC(=O)OCC)nc2cc(C(=O)N3CCC(C(N)=O)CC3)ccc2c1=O", "hERG current change (%, negative = inhibition) at 1uM": 10.6}
{"smiles": "CN(C)C(=O)CSc1nnc([C@@H](N)Cc2ccccc2)o1.Cl", "hERG current change (%, negative = inhibition) at 1uM": 2.69}
{"smiles": "Cn1c(SCc2ccc(Cl)cc2)nc(C(F)(F)F)cc1=O", "hERG current change (%, negative = inhibition) at 1uM": 24.5}
{"smiles": "CC[NH+](CC)CC.Nc1ncnc2c1ncn2C1OC(COP(=O)([O-])O)C(O)C1O", "note": "(stereo not shown)", "hERG current change (%, negative = inhibition) at 1uM": 24}
{"smiles": "Cc1ccc(C)c(OCc2nnc(NC(=O)c3ccco3)s2)c1", "hERG current change (%, negative = inhibition) at 1uM": 5.43}
{"smiles": "Cc1cccc(C(=O)NC(=S)Nc2cccc3nc(C)ccc23)c1", "hERG current change (%, negative = inhibition) at 1uM": 8.01}
{"smiles": "O=C(CSc1nnc2ccccn12)NCCc1ccc(F)cc1", "hERG current change (%, negative = inhibition) at 1uM": 2.54}
{"smiles": "OCCNc1nc(NCCC2=CCCCC2)nc(N2CCOCC2)n1", "hERG current change (%, negative = inhibition) at 1uM": -1.67}
{"smiles": "CCn1c2ccc(F)cc2c2nnc(SCCN3CCOCC3)nc21", "hERG current change (%, negative = inhibition) at 1uM": -20.9}
{"smiles": "COc1cccc(CNCC(O)COc2ccc(C(=O)c3ccccc3)cc2)c1", "note": "(stereo not shown)", "hERG current change (%, negative = inhibition) at 1uM": 9.92}
{"smiles": "CCCCC(=O)NCCNc1nc2c(c(=O)n(C)c(=O)n2C)n1Cc1ccc(F)cc1", "hERG current change (%, negative = inhibition) at 1uM": 10.7}
{"smiles": "Cc1ccc(CN2CCN(/N=C/c3cccn3C)CC2)c(C)c1", "hERG current change (%, negative = inhibition) at 1uM": 13.9}
{"smiles": "Cc1ccccc1N=C1SCCN1C(=O)CN1C(=O)NC2(CCCC2)C1=O", "hERG current change (%, negative = inhibition) at 1uM": 0.16}
{"smiles": "C/C1=C\\CCC2C(/C=C(\\C)CC1)OC(=O)C2CN1CCCCC1", "note": "(stereo not shown)", "hERG current change (%, negative = inhibition) at 1uM": 12.9}
{"smiles": "CCN(CC)c1ccc(/C=N/NC(=O)CNC(=O)/C=C/c2ccco2)cc1", "hERG current change (%, negative = inhibition) at 1uM": 4.77}
{"smiles": "CC1(C)Cc2c(cnn2-c2ccc(F)cc2)C(NC(=O)C(C)(C)O)C1", "note": "(stereo not shown)", "hERG current change (%, negative = inhibition) at 1uM": 12.6}
{"smiles": "CC(=O)[C@@H]1[C@@H]2C(=O)N(c3ccc(F)c(Cl)c3)C(=O)[C@@H]2C2c3ccccc3C=CN21", "note": "(stereo partly shown)", "hERG current change (%, negative = inhibition) at 1uM": 14.6}
{"smiles": "OCCN1CN=C(Nc2nc3ccccc3o2)NC1", "hERG current change (%, negative = inhibition) at 1uM": 5.57}
{"smiles": "CC(C)c1cc[n+](-c2nc([O-])sc2C=O)cc1", "hERG current change (%, negative = inhibition) at 1uM": 3.33}
